This passage reports koff results from article PMC9365698 (2022).

One test deals with T1, EFNB1 (Homo sapiens).
T1 chain: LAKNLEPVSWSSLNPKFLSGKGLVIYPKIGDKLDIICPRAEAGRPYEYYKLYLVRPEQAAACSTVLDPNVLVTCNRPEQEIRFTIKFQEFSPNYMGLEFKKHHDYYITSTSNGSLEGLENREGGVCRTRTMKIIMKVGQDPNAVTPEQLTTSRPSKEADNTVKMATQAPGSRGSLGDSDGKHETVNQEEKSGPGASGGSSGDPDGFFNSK
Description: SPR.

For the next test, the target named is IL1RAP (Homo sapiens). Description: SPR.

B1: EPHA4 (protein)
chain: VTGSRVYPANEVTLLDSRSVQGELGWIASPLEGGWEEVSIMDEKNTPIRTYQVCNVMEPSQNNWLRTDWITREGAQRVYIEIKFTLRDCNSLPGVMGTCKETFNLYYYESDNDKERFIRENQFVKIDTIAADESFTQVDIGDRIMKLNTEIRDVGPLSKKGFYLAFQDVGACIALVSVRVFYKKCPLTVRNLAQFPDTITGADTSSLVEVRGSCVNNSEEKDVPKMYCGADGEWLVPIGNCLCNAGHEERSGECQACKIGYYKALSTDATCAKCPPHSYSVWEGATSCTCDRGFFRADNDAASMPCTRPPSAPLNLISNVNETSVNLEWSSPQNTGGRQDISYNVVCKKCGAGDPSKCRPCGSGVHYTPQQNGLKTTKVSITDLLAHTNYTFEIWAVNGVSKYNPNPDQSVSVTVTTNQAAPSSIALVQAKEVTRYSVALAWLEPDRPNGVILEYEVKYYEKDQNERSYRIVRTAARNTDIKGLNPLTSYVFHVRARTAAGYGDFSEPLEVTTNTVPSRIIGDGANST
Take B1: in the test with EFNB1, the off-rate (koff) (usually the rate constant with which the complex falls apart) was approximately 1.3 s⁻¹.

B2: PTPRF (protein)
chain: not shown
With B2, the koff with IL1RAP was approximately 1.8 s⁻¹.
